Sequences with one replicate were seen in a single cluster, so their values are uncertain.
Tested on: ATP
Test: switch fluorescence ratio, 500 uM ATP over buffer (Cy3 cluster intensity, sum of 5 cycles each) (fold (ratio)); higher = stronger signal-on switching upon ATP binding; sequences stand for … in TCGTCGGCAGCGTCAGATGTGTATAAGAGACAGTTTTTTTTTTTTTTTTTTTTTTTTT…TC
Settings: aptamer strand: ATP DNA aptamer (quencher-CACCTGGGGGAGTATTGCGGAGGAAGG + anchor), 100 nM annealed; ATP concentration: 500 uM; one replicate
Outline: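 The quencher-labelled ATP aptamer, at 100 nM, was annealed to Cy3-labelled switching-strand clusters on a modified Illumina MiSeq flow-cell. The clusters were imaged in selection buffer, then after 15 min with 500 uM ATP at 22 °C, and this buffer/ATP cycle ran five times with NaOH stripping and re-annealing between runs. Per-cluster fluorescence ratios, summed target-cycle over summed buffer-cycle Cy3 intensity, were averaged per switch-domain sequence. Clusters outside 100-1000 RFU were excluded.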
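Also: ATP exposure 15 min at 22 °C before imaging.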

Sequence	switch fluorescence ratio
GTGGACTAGC	0.979
AACAAGCGAT	0.997
CTGTTTGGT	0.989
GTTCCTGTTG	0.978
GCGGTCCTTA	0.954
TTGTAGCTAT	3.28
GCCCGGTACA	0.984
GGTGATGTT	0.976
TACGGATTTT	1.03
AGACTCCGTA	1.08
TATCTATACT	1.03
CGTCGCACGC	1.8
TCGTGCACCT	1.03
CCGGCGGGTC	1.04
ACGTCTGGGC	1.03
ATTTAGGTCG	0.952
TTGCATTCCG	1.12
CTCGACTCCG	1.11
TGTCAAATC	1.21
GTAAGTTAAT	1.01
GCGGGCTTTC	1.02
GGGCCAAGCA	1.01
GTCCATCTTG	1.03
GGCGGATTTA	0.965
CTTCCACGAC	2.66
TGTAAAACCT	1.09

Sequence	switch fluorescence ratio
CAATAGGCCT	0.998
CGGTGAGGG	1.02
GTGGTATGGA	0.963
CCTTGGGATA	1.01
TGCTAGTCTG	0.95
TAACGGTAGG	1.04
GTAGCCAAAA	2.45
CAGTGAGTGG	0.977
TGTAAAAGGG	1.27
ATGGCTAAGG	0.972
AAACGCCCGC	1.12
TCGTTGTAAT	1.04
GGTCCTGCCG	1.05
TTATAACCAA	0.999
AAGTATGTGT	1.03
TAAATAGTGT	0.989
CGTTTTTGAC	1.01
AGTATCCGTT	0.973
GATGTTAAAA	0.958
TATGCTGTGC	0.992
GCGACGGGTG	1.06
ATGTTTTCAT	0.956
ATAGACCTAA	1.02
AGAGTTTTT	0.979
TCTTGGCACT	1
ATAGTCTCAA	0.996

Sequence	switch fluorescence ratio
GAGTAAACCT	2.83
TTCTCGTAAG	0.965
ATGATATATG	1.05
AACCATTCCA	1.02
TTCAAACGGT	0.96
CTGGTATTTA	0.965
AAAGACAGTC	1.07
CGCTGTTAAC	1.37
GGTGACGCGC	1.1
CAATCATCAG	0.997
TAGGAGACAG	0.984
TTACCTGTCA	1
ATCTCGAGCC	0.998
GTGGGCAACC	0.972
GCAGCAAGGA	3.67
CTATACTCCT	1.73
AATAGCAGGG	1.08
GTCGAGGGCA	0.997
TTCCCGGGTC	1.04
GAGCATTTGA	1.04
TATAGATATC	1.02
GCTAGCTTCC	2.11
AATTGAGCCG	1.03
TTCGGCTGCT	0.958
AGGCCGAGT	0.998
TTTTCAATCA	0.99

Sequence	switch fluorescence ratio
TCACGTGGAT	0.999
TAACATTGA	1.04
TACTTCCATA	1.1
AAACATCGG	1
GCAACTGAGT	1.02
TCAGTCGGAC	0.997
GCAGCCGACC	1.67
AATGCTTGTT	1.06
CGGCGAAAGA	1.03
AGTGGACTTT	0.944
AATGGTCGG	1
GGTGTTGCTT	0.987
CTTAGAGGCC	0.983
ATCCTACCTA	1.11
GCTCTCTAAG	0.949
CTATAGAGAC	1.05
ATGAGCACGT	0.981
CCCGCTTTGG	1.42
AGCCATCGAA	1.01
TTGCTTTGCG	1.02
GGCAAGTTGT	0.957
AGTATTTCTA	0.964
ATGATTGTCT	1.05
AGGGCAATTT	1.07
ACCGCGTCGG	0.998
GTTTGATGTG	1

Sequence	switch fluorescence ratio
ACGGCTAAGC	1.02
CGGGTCTGCG	0.989
GCCTCCGGGC	2.29
CGAAGGTGCT	1.08
GAAGGAATGG	1.11
AAACAGTAAT	1.05
CCGGGAACCG	1.04
GATAGGGTTC	1.01
TGTGGAATTG	0.955
TATGTTGCTT	0.943
GCATTGATGA	1.02
TTCCAGGTAC	1.28
TTTAGCAGTG	0.992
GTTTTACATG	1.01
GAGTCGTGTC	1.01
AAGTAAGGC	1.06
CTGTCCCCGG	1.61
TGTGGCCTGG	0.959
GATTGTTGTG	1.02
CAATCGCATT	1.86
ATTGAGAATG	0.992
TTCTATGGGC	1.04
ATGACAAGCC	1.08
TTCCGTATGG	1.02
CAACGATCTT	0.996
AGGGGCGCGG	1

Sequence	switch fluorescence ratio
ATGTGGATAA	0.954
AGGAAATAAC	1.02
TATTTTCCCT	1.05
ATGCATTTGA	0.998
CGGGTGGCTT	1.02
GTTGATCGGA	1.02
AGCATGTTAG	1.01
GACGCAGCAG	4.53
GCCCACCCGA	1.04
TAGCAAATAA	1.42
ATAGTAAGTG	0.98
CGTGCTTTCG	0.958
CCACTGGGGA	1
GGTACTAGTA	0.957
ATTTAGTGTG	0.986
AAGTAGAAGA	1.01
GAAATTATGG	1
CTTAAGTAAG	0.976
CTCATTAGTT	0.96
CCTCACTCTT	1.18
TCTTTATGGA	0.971
TAGCTATCTG	1.01
AGCTACTGCA	1.03

From the supplement of paper PMC10126150
